{"source": "paper PMC10836093", "about": "“Ensemble-based design of tau to inhibit aggregation while preserving biological activity” (Research Square, 2024)", "binders": {"B1": {"name": "P301S tauRD (domain or fragment)", "chain": "not shown", "notes": "tau repeat domain, human MAPT, 4R tauRD […] on 2N4R tau, with the FTD-linked P301S mutation; without tags; source: E. coli BL21-Gold (DE3), purified (boiling, HiTrap SP, Superdex 75)"}, "B2": {"name": "P301S Turn mutant tauRD (domain or fragment)", "chain": "not shown", "notes": "tau repeat domain, human MAPT, 4R tauRD […] on 2N4R tau, with P301S, V300Q and S305K; without tags; also called P301S tauRD Turn mutant; source: E. coli BL21-Gold (DE3), purified (boiling, HiTrap SP, Superdex 75)"}, "B3": {"name": "P301S Full mutant tauRD (domain or fragment)", "chain": "not shown", "notes": "tau repeat domain, human MAPT, 4R tauRD […] on 2N4R tau, with P301S, D295E, I297L, V300Q and S305K; without tags; source: E. coli BL21-Gold (DE3), purified (boiling, HiTrap SP, Superdex 75)"}, "B4": {"name": "P301S_V300Q tauRD-mEOS3.2 (domain or fragment)", "chain": "not shown", "notes": "not shown: mEOS3.2, C-terminal, kept"}, "B5": {"name": "P301S_S305K tauRD-mEOS3.2 (domain or fragment)", "chain": "not shown", "notes": "as for B4"}, "B6": {"name": "P301S Turn mutant tauRD-mEOS3.2 (domain or fragment)", "chain": "not shown", "notes": "as for B4"}, "B7": {"name": "P301S Full mutant tauRD-mEOS3.2 (domain or fragment)", "chain": "not shown", "notes": "as for B4"}}, "key": {"[1]": {"biological_target": "the molecule itself", "experiment": "ThT fluorescence aggregation assay; tauRD 5, 10, 20, 40 μM in 1X PBS, 10 mM DTT, induced with 2X heparin, 37 °C; self-assembly into fibrils, t1/2max from fitted curves; fibrils at endpoints seen by TEM"}, "[2]": {"biological_target": "tubulin dimer (UniProt P02550)", "experiment": "cell-based or functional assay"}, "[3]": {"biological_target": "the molecule itself", "experiment": "FRET or BRET; HEK293T cells stably expressing tauRD-mEOS3.2, seeded with sonicated heparin-induced 2N4R tau fibrils (lipofectamine), 48 h, photoconverted 20 min; FRET between green and red mEOS3.2 copies read by flow cytometry as percent FRET-positive cells"}}}
{"binder": "B1", "values": [{"measurement": "t1/2max of ThT aggregation at 5 μM", "setting": "[1]", "result": "52.4 ± 29.2", "unit": "h"}, {"measurement": "t1/2max of ThT aggregation at 40 μM", "setting": "[1]", "result": "17.9 ± 5.4", "unit": "h"}, {"measurement": "microtubule polymerization assay, polymerization amplitude (endpoint intensity), fold reduction relative to WT tauRD", "setting": "[2]", "result": "~10", "unit": "fold"}]}
{"binder": "B2", "values": [{"measurement": "t1/2max of ThT aggregation at 5 μM", "setting": "[1]", "result": "97.7 ± 31.7", "unit": "h"}, {"measurement": "t1/2max of ThT aggregation at 40 μM", "setting": "[1]", "result": "26.7 ± 2.9", "unit": "h"}]}
{"binder": "B3", "values": [{"measurement": "t1/2max of ThT aggregation at 40 μM", "setting": "[1]", "result": "55.6 ± 24.5", "unit": "h"}]}
{"binder": "B4", "values": [{"measurement": "fold reduction of FRET-positive cells against P301S tauRD-mEOS3.2", "setting": "[3]", "result": 1.2, "unit": "fold"}]}
{"binder": "B5", "values": [{"measurement": "fold reduction of FRET-positive cells against P301S tauRD-mEOS3.2", "setting": "[3]", "result": 1.2, "unit": "fold"}]}
{"binder": "B6", "values": [{"measurement": "fold reduction of FRET-positive cells against P301S tauRD-mEOS3.2", "setting": "[3]", "result": "~2", "unit": "fold"}]}
{"binder": "B7", "values": [{"measurement": "fold reduction of FRET-positive cells against P301S tauRD-mEOS3.2", "setting": "[3]", "result": 2, "unit": "fold"}]}
